Measured values as given in article PMC4055408, “The Transcription Factor TFII-I Promotes DNA Translesion Synthesis and Genomic Stability” (PLoS Genetics, 2014).

Key:
TFII-I^330–667 fragment = molecular target: T1, TFII-I^330–667 fragment (human, UniProt P78347 330-667); experiment: SEC; purified recombinant proteins mixed (1:1:1 molar ratios for Figure 1E) and fractionated on Superdex 200 10/300 GL; fractions on SDS-PAGE, Coomassie; conditions: both partners purified
T1 construct: also called monomeric TFII-I fragment; source: bacteria, GST fusion, purified (glutathione-Sepharose 4B, PreScission, anion exchange, size exclusion)

[1] = molecular target: T2, TFII-I fragment (residues 350–667) containing R2-R4 (human, UniProt P78347 350-667); experiment: as above; conditions: both partners purified
T2 construct: source: bacteria, GST fusion, purified (glutathione-Sepharose 4B, PreScission, anion exchange, size exclusion)

Binder	binding result (TFII-I^330–667 fragment)	binding result [1]
Rev7 R124A–Rev3L ([…]) complex (complex, human Rev7 with R124A (disrupts Rev7 dimerization); also called Rev7–Rev3L; source: recombinant, purified; prepared as previously described; copies: 1 + 1) chain 1: [letters of about 200 residues omitted] chain 2: MLTPTPDSSPRSTSSPSQSKNGSFTPRTANILKPLMSPPSREEIMATLLDHD	binds	
His6-Rev7 R124A (natural protein, human Rev7 with R124A (disrupts Rev7 dimerization); The Rev7 chain of m12, written alone for the pairs that touch inside the reconstituted complexes; source: prepared as previously described) not shown	binds	binds
